About 18,000 (5.8%) of roughly 310,000 compounds were called active. The inconclusive results got no clear call from the source; some entries with a clear call stand among them for comparison. Calls come from the whole dose curve; as a rule, active = well fitted inhibition curve with a large enough effect; inconclusive = small, poorly fitted or top-dose-only effect, or another doubt; inactive = no such curve, though single readings can be large or run the other way. No potency is given beside an inconclusive call; the fits are too rough.
Assay: Primary qHTS for delayed death inhibitors of the malarial parasite plastid, 48 hour incubation
Conditions: P. falciparum luciferase growth in erythrocytes; series mostly up to 28.7 µM
In short: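 Erythrocytes infected with P. falciparum carrying an integrated firefly luciferase reporter (2% hematocrit, 0.1% parasitemia final) were exposed to compounds in RPMI 1640 with 0.5% Albumax at 37 C, 5% CO2. Growth inhibition was scored as reduced luminescence.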
Potency is the fitted concentration of half-maximal effect; tags give direction and shape of the fitted curve.

Structure (SMILES)	Potency
Cc1cccc(NC(=O)COc2coc(CN3CCN(c4ccccc4)CC3)cc2=O)c1C	active: 9.28 µM
Cc1nnc(NC(=O)c2cc(-c3ccco3)nc3ccccc23)s1	inactive
CCN(CC)CCN(C(=O)/C=C/c1cccs1)c1nc2ccc(Cl)cc2s1	inconclusive [inhibitor, single point]
O=C(CCCSc1ccccc1)Nc1ccc(Cl)c(S(=O)(=O)N2CCOCC2)c1	active: 13.1 µM
Cc1ccc(C(C)C)c(OCCCN2CCc3ccccc3C2)c1	inconclusive [inhibitor, single point]
CCCCC(=O)N/N=C/c1c(O)n(CCc2ccccc2)c(=O)[nH]c1=O	inconclusive [inhibitor, single point]
O=C(Nc1cc(C(F)(F)F)ccc1N1CCOCC1)c1cccnc1Cl	inactive
COc1ccc(CNC(=O)Nc2cccc(C(F)(F)F)c2)cc1OC	inactive
c1cn(CCCNc2ncnc3sc4c(c23)CCC4)cn1	inconclusive [inhibitor, full curve]
CCOc1ccc2[nH]c3c(N4CCc5ccccc5C4)ncnc3c2c1	inconclusive [inhibitor, full curve]
Cc1cc(C(=O)CCC(=O)N2CCN(S(=O)(=O)c3ccccc3)CC2)c(C)s1	inconclusive [inhibitor, single point]
Cc1cc(C)c2c(c1)SC1=NC(c3ccccc3)(C(F)(F)F)NC(=O)N12 (stereo not given)	inconclusive [inhibitor, single point]
Cc1nnc(C)n1/N=C/c1ccc(-c2ccccc2Cl)o1	inactive
C=CCn1c(SCC(=O)NCC2CCCO2)nnc1-c1ccncc1 (stereo not given)	inactive
Cc1ccc(OCC(=O)NNC(=O)C2CCCO2)c(C)c1 (stereo not given)	inconclusive [inhibitor, partial curve, poor fit]
COc1ccc(CCNC(=O)Cn2nc(C)c3c(C)n(-c4ccccc4)nc3c2=O)c(OC)c1	inconclusive [inhibitor, single point]
NS(=O)(=O)c1ccc(O)c(NC(=O)c2ccc([N+](=O)[O-])cc2)c1	inactive
CCOC(=O)c1c(C)[nH]c(C)c1S(=O)(=O)NCC1CCN(Cc2cccc(F)c2)CC1	inactive
CCNS(=O)(=O)c1ccc2nc(NC(=O)/C=C/c3cc(OC)c(OC)c(OC)c3)sc2c1	inactive
COc1cccc(N2CCN(C(=O)C3CCCN(S(=O)(=O)c4ccc5c(c4)oc(=O)n5C)C3)CC2)c1 (stereo not given)	inconclusive [inhibitor, partial curve]
CC1CN(S(=O)(=O)c2cccc(C(=O)Nc3ccccc3N3CCCCC3)c2)CC(C)O1 (stereo not given)	active: 11.7 µM
CC(Sc1ccsc1[N+](=O)[O-])C(=O)NCc1ccccc1 (stereo not given)	inconclusive [inhibitor, partial curve, poor fit]
COc1cccc(-c2cc(C(=O)NCc3cccs3)no2)c1	inactive
Cc1sc2nc(CN3CCOCC3)nc(N3CCN(S(=O)(=O)c4ccccc4)CC3)c2c1C	active: 9.28 µM
CC(=O)N1CCc2cc(Br)cc(S(=O)(=O)N3CCCCCC3)c21	active: 3.29 µM

Structure (SMILES)	Potency
C[C@]12CC[C@@H]3c4ccc(O)cc4[C@@H](O)C[C@H]3[C@@H]1CC[C@@H]2O	inactive
NC(=O)c1cccnc1OCC(F)(F)F	inactive
Cc1ccc(S(=O)(=O)c2nc(Cc3ccccc3)oc2N2CCOCC2)cc1	inactive
CCn1c(SCC(=O)Nc2ccc(S(N)(=O)=O)cc2)nnc1-c1cccc(OC)c1	inactive
COc1ccc(OC)c(N2CC(O)=C(c3nc4ccccc4s3)C2=N)c1	inconclusive [inhibitor, partial curve]
Cc1c(CN2CCN(CC(C)C)C(CCO)C2)[nH]c2ccc(Cl)cc12 (stereo not given)	inactive
COc1ccc(-c2cc(C(=O)Nc3c(C)n(C)n(-c4ccccc4)c3=O)c3ccccc3n2)cc1	inconclusive [inhibitor, partial curve, poor fit]
CCC(=O)NC1CCN(C(=S)NC)CC1	inactive
CCOc1cccc2cc(C(=O)N3CCOCC3)c(=O)oc12	inactive
Cc1onc(-c2ccccc2)c1C(=O)Nc1nnc(CC(C)(C)C)s1	inactive
CCn1c2ccccc2c2cc(NC(=O)C(C)Oc3ccc(OC)cc3)ccc21 (stereo not given)	inconclusive [inhibitor, single point]
Cc1cc(NC(=O)CSc2nc3c(c(=O)n2CCc2ccccc2)SC(C)C3)no1 (stereo not given)	inconclusive [inhibitor, partial curve]
Cc1nc2ccccc2c(N)c1C(=O)/C=C/c1ccccc1	active: 5.86 µM
O=C(N/N=C/C=C/c1ccco1)c1cccnc1	inactive
COC(=O)c1ccc(S(=O)(=O)N2Cc3ccccc3C2)cc1	inconclusive [inhibitor, partial curve, poor fit]
CNC(=O)COC(=O)c1c2c(nc3ccccc13)CCC2	active: 13.1 µM
CCCn1nc(C(=O)N2CCc3ccccc3C2)c2ccccc2c1=O	inconclusive [inhibitor, single point]
O=C(CCCSc1nc2ccccc2[nH]1)N1CCN(c2ccccc2)CC1	inconclusive [inhibitor, single point]
Clc1ccc(-c2nnc3n2-c2ccccc2SC3)cc1	inactive
CCN1CCc2nc3ccccc3c(C(=O)Nc3ccc(C#N)cc3)c2C1	inconclusive [inhibitor, single point]
CCn1cc(Cl)c(C(=O)Nc2cc(C(=O)OC)cc(C(=O)OC)c2)n1	inactive
COc1ccc(S(=O)(=O)N(C)c2ccc(C(=O)N3CCN(c4ccccc4)CC3)cc2)cc1OC	active: 14.7 µM
Cn1c(=O)c2c(nc(CN3CCN(c4ccccc4F)CC3)n2CCN2CCOCC2)n(C)c1=O	inconclusive [inhibitor, partial curve, poor fit]
O=C(Nc1nccs1)NC1CCCCC1	active: 2.94 µM
Cc1ccc(CN(C(=O)Cc2cccs2)C(C(=O)NC2CCCC2)c2ccncc2)cc1 (stereo not given)	inconclusive [inhibitor, partial curve, poor fit]

Structure (SMILES)	Potency
CC(C)Cc1nc2oc3c(NCC4CCCO4)ncnc3c2c2c1CCC2 (stereo not given)	inconclusive [inhibitor, full curve]
Cc1ccc(NC(=O)Cn2ccc(=O)[nH]c2=O)cc1	inactive
CC1N=C2c3ccccc3N=C(SCc3cc(=O)n4cc(Cl)ccc4n3)N2C1=O (stereo not given)	inconclusive [inhibitor, single point]
CCN1CCN(C(=O)c2cc3cc(Cl)ccc3[nH]2)CC1	inconclusive [inhibitor, partial curve, poor fit]
CCOC(=O)c1csc(NC(=O)CSc2nnnn2-c2ccc3c(c2)OCCO3)n1	inconclusive [inhibitor, single point]
Cn1cc(/C=C/c2cc[n+](C)cc2)c2cc(Cl)ccc21	active: 0.657 µM
Cc1ccc(S(=O)(=O)Nc2ccc(NC(=O)Nc3cccc(C(F)(F)F)c3)cc2)cc1	active: 13.1 µM
COc1ccc(/C=C(\C#N)C(=O)N2COCC2(C)C)cc1	inconclusive [inhibitor, single point]
CCC(=O)N1CCc2cc(S(=O)(=O)NCCC(=O)NCc3ccc(F)cc3)ccc21	inconclusive [inhibitor, single point]
Cc1cccc(C(=O)N/N=C/c2ccccn2)c1	inactive
COc1ccc(Cl)cc1NC(=O)CN(C)C(=O)Cc1ccc(-c2ccccc2)cc1	inconclusive [inhibitor, single point]
CCCN(CCC)CCCNC(=O)CCNS(=O)(=O)c1ccc(Br)cc1	inconclusive [inhibitor, single point]
COc1ccc2c(c1)C1CC(C)(NC(=O)C1S(=O)(=O)c1ccc(F)cc1)O2 (stereo not given)	inactive
O=C1N=C(N2CCN(Cc3ccccc3)CC2)S/C1=C/c1cccs1	inconclusive [inhibitor, partial curve, poor fit]
CC(C)c1cc(C(F)(F)F)n2nc(C(=O)Nc3ccc4c(c3)OCO4)cc2n1	inactive
NC(=O)C1CCN(c2nc(-c3ccccc3)nc3ccccc23)CC1	inconclusive [inhibitor, partial curve]
COCCNC(=S)N(CCc1c(C)[nH]c2ccc(OC)cc12)Cc1cccnc1	inconclusive [inhibitor, single point]
Cc1ccc(/C=N/n2c(C3CCCCC3)n[nH]c2=S)s1	inconclusive [inhibitor, single point]
O=C(C1CCN(S(=O)(=O)N2CCCCC2)CC1)N1CCCCC1	inactive
Cc1ccc(Cc2ccc(C(=O)NNC(N)=S)o2)cc1	inactive
O=C(NCc1ccccn1)[C@@H]1C[C@H]1[C@@H](NP(=O)(c1ccccc1)c1ccccc1)c1ccccc1	inactive
C#Cc1ccc(CN2CCC(N3CCC(C(=O)NCc4ccccn4)CC3)CC2)cc1	inconclusive [inhibitor, single point]
Cc1ccc(C2CC(c3ccco3)=NN2S(C)(=O)=O)cc1 (stereo not given)	inactive
CC1CCCC(C)N1S(=O)(=O)c1ccc(S(=O)(=O)NCCc2ccncc2)cc1 (stereo not given)	inconclusive [inhibitor, partial curve]
Cc1nc2sc(C(=O)O)c(N)c2c2c1COC(C)(C)C2	inconclusive [inhibitor, single point]
